# Measurements taken from PubChem BioAssay AID1347165 (National Center for Advancing Translational Sciences (NCATS), 2019).
# Values joined by “and” are separate entries in the source; they are usually repeats but may differ in a detail not shown here. Identical values can stand only once. The whole screen tested about 220,000 compounds, of which about 5,700 (2.6%) were called active. The shares of active, inactive and inconclusive entries below differ from those in the screen. The call rests on the fitted dose curve; in most records, active means well fitted inhibition curve with a large enough effect; inconclusive means small, poorly fitted or top-dose-only effect; inactive means no such curve, though single readings can be large or run the other way. Potencies of inconclusive entries are doubtful fits and often do not repeat.
# Molecular target: Lysine-specific demethylase 5B (Homo sapiens) (UniProt Q9UGL1)
# UniProt Q9UGL1, sequence (Q9UGL1 whole entry, looked up): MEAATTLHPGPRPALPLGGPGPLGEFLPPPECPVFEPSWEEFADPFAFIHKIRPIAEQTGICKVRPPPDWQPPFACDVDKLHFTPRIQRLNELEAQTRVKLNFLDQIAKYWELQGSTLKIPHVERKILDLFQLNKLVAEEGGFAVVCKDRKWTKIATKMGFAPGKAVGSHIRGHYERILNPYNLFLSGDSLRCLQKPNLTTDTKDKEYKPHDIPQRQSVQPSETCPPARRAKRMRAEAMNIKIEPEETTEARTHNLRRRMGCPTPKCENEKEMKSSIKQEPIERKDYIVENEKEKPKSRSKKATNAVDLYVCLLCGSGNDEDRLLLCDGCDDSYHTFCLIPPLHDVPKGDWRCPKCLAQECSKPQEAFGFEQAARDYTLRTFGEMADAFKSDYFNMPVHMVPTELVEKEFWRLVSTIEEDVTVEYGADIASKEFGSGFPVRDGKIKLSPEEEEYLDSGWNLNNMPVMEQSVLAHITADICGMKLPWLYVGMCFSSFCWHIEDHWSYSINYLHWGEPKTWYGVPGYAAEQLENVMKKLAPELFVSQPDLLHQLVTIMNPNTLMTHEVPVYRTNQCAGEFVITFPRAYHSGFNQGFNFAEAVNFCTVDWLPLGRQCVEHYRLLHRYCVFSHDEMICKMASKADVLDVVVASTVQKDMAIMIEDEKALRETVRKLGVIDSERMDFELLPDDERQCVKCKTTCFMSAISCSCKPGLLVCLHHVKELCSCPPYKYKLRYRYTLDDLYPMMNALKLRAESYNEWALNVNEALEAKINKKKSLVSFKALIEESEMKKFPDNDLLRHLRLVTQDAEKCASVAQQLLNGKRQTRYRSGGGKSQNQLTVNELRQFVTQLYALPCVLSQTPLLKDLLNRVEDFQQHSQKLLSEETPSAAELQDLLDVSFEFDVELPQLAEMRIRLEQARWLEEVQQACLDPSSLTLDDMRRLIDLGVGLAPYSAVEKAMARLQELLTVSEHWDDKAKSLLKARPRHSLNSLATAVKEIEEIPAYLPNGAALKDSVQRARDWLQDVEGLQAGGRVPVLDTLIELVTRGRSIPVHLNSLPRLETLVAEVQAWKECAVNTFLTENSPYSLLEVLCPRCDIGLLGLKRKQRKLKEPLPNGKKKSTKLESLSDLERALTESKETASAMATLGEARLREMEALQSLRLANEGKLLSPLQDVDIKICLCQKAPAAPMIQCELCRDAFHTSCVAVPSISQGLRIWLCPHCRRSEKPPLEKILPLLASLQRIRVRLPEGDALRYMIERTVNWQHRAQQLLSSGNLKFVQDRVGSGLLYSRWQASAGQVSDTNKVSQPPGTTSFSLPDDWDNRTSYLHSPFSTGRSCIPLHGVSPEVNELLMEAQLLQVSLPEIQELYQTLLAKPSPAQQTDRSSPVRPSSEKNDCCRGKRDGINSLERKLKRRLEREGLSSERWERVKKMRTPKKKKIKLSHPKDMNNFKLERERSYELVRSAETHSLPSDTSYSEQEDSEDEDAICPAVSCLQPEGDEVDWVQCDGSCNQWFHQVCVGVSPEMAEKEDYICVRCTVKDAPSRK
# Assay: Primary screen for KDM5B Histone Demethylases FDH-coupled qHTS; further: nearly all actives have a fitted effect of over 70% in size; on activity change, negative = inhibition: 0% is about no effect
# Conditions: FDH-coupled NADH fluorescence (FDH is formaldehyde dehydrogenase); activity change, negative = inhibition: at 57.7 µM (top of the series) unless noted
# Method in brief: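 Coupled FDH/NAD⁺ fluorescence readout. KDM5BΔAP 200 nM final; compound titration, 10 min RT preincubation; substrate mix 12.5 µM H3K4me3, 25 µM 2-OG, 50 µM Fe(II), 100 µM ascorbate, 0.25 mM NAD⁺, 0.25 U/mL FDH; ΔRFU over 30 min.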
# Potency means the concentration at half of the fitted maximal effect; tags describe the fitted curve by direction and shape.
SMILES,Potency,"activity change, negative = inhibition"
CC1CCCN(C(=O)Cn2ncc3c([nH]c4ccccc43)c2=O)C1 (centres undefined),"inconclusive: 35.5 µM [inhibitor, single point]",
COC(=O)c1c(NC(=O)/C(C#N)=C/c2ccccc2)sc2c1C(C(=O)OC)CC2 (centres undefined),"inconclusive: 25.1 µM [inhibitor, partial curve, poor fit]",
Cc1ccc(S(=O)(=O)Nc2nc3ccccc3nc2NCc2ccc(Cl)cc2)cc1,"inconclusive: 35.5 µM [inhibitor, partial curve, poor fit]",
Cc1ccc(S(=O)(=O)N2CCN(CC(=O)N/N=C\c3ccc(O)c(O)c3)CC2)cc1,"inconclusive: 35.5 µM [inhibitor, partial curve, poor fit]",
CN(C)[S+](=O)([O-])c1ccc2c(c1)OCCN(Cc1cccnc1)C2,,inactive: -2.42% [at 86.2 µM]
COc1cccc(-c2[nH]nc3c2C(c2ccc(O)cc2)C(C#N)=C(N)O3)c1 (centres undefined),"inconclusive: 35.5 µM [inhibitor, single point]",
COc1ccc(CN2CCN(c3nc(C)ccc3C#N)CC2CCO)cc1C (centres undefined),"inconclusive: 22.4 µM [inhibitor, single point]",
COc1ccc(C2c3c(n(C)c4ccccc34)C(=O)N2CC(=O)Nc2cccc(Cl)c2C)cc1 (centres undefined),"inconclusive: 39.8 µM [inhibitor, single point]",
Cc1ccc(-c2cc(C(=O)N(C)C)c3ccccc3n2)c(C)c1,"inconclusive: 39.8 µM [inhibitor, single point]",
CCC1=C(c2ccc(C)cc2)S(=O)(=O)N=C1N1CCC(C(=O)NCc2ccc(N(C)C)cc2)CC1,"inconclusive: 2.82 µM [inhibitor, partial curve, poor fit]",
CCOc1ccc(OCC)c(C(=O)NCc2coc(-c3cccs3)n2)c1,"inconclusive: 31.6 µM [inhibitor, single point]",
c1ccc(CN2CC(CNc3cccnc3)C3(C2)CN(c2ccccc2)C3)cc1 (centres undefined),"inconclusive: 56.2 µM [inhibitor, single point]",
CN(C)C[C@@H]1CN(c2ncccn2)C[C@H]1NC(=O)C1(C)CCOCC1,"inconclusive: 20 µM [inhibitor, partial curve, poor fit]",
c1cnc2nc(-c3ccncc3)[nH]c2c1,active: 126 µM and active: 31.6 µM,
COc1ccc(CNC(=O)c2cnn3c(C)c(Cc4c(F)cccc4Cl)c(C)nc23)cc1,"inconclusive: 3.98 µM [inhibitor, partial curve, poor fit]",
Nc1c(N(Cc2ccco2)C(=O)Cc2c(F)cccc2Cl)c(=O)[nH]c(=O)n1Cc1ccccc1,,inactive: -23%
O=C(O)Cc1ccc2[nH]c3ccccc3c2c1,"inconclusive: 14.1 µM [inhibitor, partial curve, poor fit]",
O=C(COc1ccccc1)N[C@@H]1C[C@H](Cn2cc(C3CC3)nn2)[C@@H](O)[C@H]1O,"inconclusive: 31.6 µM [inhibitor, partial curve]",
COc1ccc(CN(C)Cc2nnc(-c3ccccc3)o2)cc1F,,inactive: 9.47%
O[C@H]1[C@H](NCc2ccc(Cl)cc2)[C@@H](c2ccc(N3CCOCC3)nc2)C[C@H]1O,active: 39.8 µM,

SMILES,Potency,"activity change, negative = inhibition"
O=C(NCCCN1CCN(c2cccc(Cl)c2)CC1)c1cnn(-c2ccc(F)cc2)c1-n1cccc1,"inconclusive: 15.8 µM [inhibitor, partial curve, poor fit]",
O=C1C(=O)c2ccccc2C(O)=C1c1cccc([N+](=O)[O-])c1,"inconclusive: 39.8 µM [inhibitor, single point]",
N#Cc1ccc(CN2CCn3c(nnc3C3CCNCC3)C2)cc1,"inconclusive: 56.2 µM [inhibitor, partial curve, poor fit]",
COc1ccc(C2Cn3nnc(C(=O)N4CCN(C(=O)Cc5ccc(F)cc5)CC4)c3CO2)cc1 (centres undefined),,inactive: -5.23%
COc1ccc(C(NC(=O)CNc2ccccc2C(N)=O)C2CC2)cc1 (centres undefined),"inconclusive: 28.2 µM [inhibitor, partial curve, poor fit]",
CCOC(=O)CCc1c(C)nc2cc(-c3cc(OC)cc(OC)c3)[nH]n2c1=O,"inconclusive: 2.51 µM [inhibitor, full curve, poor fit]",
CCn1nccc1C(=O)N1CC(Oc2ccccc2-c2nc(CCOC)no2)C1,"inconclusive: 20 µM [inhibitor, partial curve, poor fit]",
O=C(CSc1nc2ccccc2nc1N1CCCC1)NCc1ccccc1,"inconclusive: 28.2 µM [inhibitor, single point]",
CN1CC(=O)N(C2CCCC2)Cc2c(NCc3ccc(F)cc3)ncnc21,"inconclusive: 25.1 µM [inhibitor, single point]",
COc1ccc(Oc2c(C)oc3cc(OCC(=O)N(C)Cc4ccccc4)ccc3c2=O)cc1,,inactive: -12.4%
Cc1ccc(S(=O)(=O)NCCO)cc1C(=O)O,,inactive: 24.1%
O=C(O)c1ccc(N2C(=O)C/C(=C/c3c[nH]c4ccccc34)C2=O)cc1,"inconclusive: 20 µM [inhibitor, single point]",
Cn1cccc1CN1CCn2c(nnc2-c2ccccc2)C1,"inconclusive: 112 µM [inhibitor, partial curve]",
COC(=O)c1[nH]c2ccccc2c1NC(=O)C(C)N1CC(C)OC(C)C1 (centres undefined),"inconclusive: 35.5 µM [inhibitor, partial curve, poor fit]",
NC(=O)c1ccc(NC(=O)c2cc(-c3cccs3)nc3ccccc23)cc1,"inconclusive: 25.1 µM [inhibitor, partial curve, poor fit]",
O=C(Nc1ccc([C@H]2OCC(=O)N(CC3CCCCC3)[C@@H]2CO)cc1)c1ccccn1,,inactive: 0.922% [at 86.2 µM]
COc1ccc(-c2cn3c(C)c(C(=O)Nc4cc(C)cc(C)c4)sc3n2)cc1,"inconclusive: 31.6 µM [inhibitor, partial curve, poor fit]",
COC1CCN(C(=O)c2cnc3c(c2)N(C(=O)CCc2ccccc2)CCC3)CC1,,inactive: -15.2% [at 86.2 µM]
CCc1cccc(NC(=O)CN(C)S(=O)(=O)c2ccc3[nH]c4c(c3c2)CCCC4)c1,"inconclusive: 17.8 µM [inhibitor, partial curve, poor fit]",
